The whole screen tested about 45,000 compounds, of which about 65 (0.1%) were called active. The call rests on the fitted dose curve; in most records, active means well fitted activation curve with a large enough effect; inconclusive means small, poorly fitted or top-dose-only effect; inactive means no such curve, though single readings can be large or run the other way. This is one part of the list.

Sequence of UniProt P54803 (P54803 whole entry, looked up): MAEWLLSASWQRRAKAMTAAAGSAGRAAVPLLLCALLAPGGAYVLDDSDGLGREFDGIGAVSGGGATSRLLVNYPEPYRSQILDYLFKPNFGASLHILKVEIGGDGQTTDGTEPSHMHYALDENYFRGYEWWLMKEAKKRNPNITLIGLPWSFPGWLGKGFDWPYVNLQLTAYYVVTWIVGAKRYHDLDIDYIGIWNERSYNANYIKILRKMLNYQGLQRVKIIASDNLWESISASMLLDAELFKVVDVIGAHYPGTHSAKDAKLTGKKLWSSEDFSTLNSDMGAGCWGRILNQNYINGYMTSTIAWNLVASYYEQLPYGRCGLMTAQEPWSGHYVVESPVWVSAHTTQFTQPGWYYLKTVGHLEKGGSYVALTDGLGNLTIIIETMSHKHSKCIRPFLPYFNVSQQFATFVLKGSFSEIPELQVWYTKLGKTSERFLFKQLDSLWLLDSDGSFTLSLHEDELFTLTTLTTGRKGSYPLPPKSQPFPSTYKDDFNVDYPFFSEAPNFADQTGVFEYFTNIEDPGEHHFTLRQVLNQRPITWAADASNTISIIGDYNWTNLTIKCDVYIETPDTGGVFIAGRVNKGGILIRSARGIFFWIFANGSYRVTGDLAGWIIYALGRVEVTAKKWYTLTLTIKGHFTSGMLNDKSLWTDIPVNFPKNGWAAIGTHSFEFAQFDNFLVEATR

The experiment concerns the target Galactocerebrosidase (Homo sapiens) (UniProt P54803). Description: A Novel Cell-Based Assay to Identify Small Molecules for B -Galactocerebrosidase. Further: 0% is about no effect; nearly all actives have a fitted effect of over 65% in size. The note with it: 145M-Twi-hGALC-G270D cells (Twitcher mouse brain line with human GALC G270D), HMU-beta-Gal fluorescence, 48 h; series mostly up to 57.5 µM; activation: at the top concentration. In a few lines:
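Brain-derived Twitcher mouse 145M-Twi cells stably expressing human GALC-G270D or wild-type GALC, treated live, then residual GALC activity read by fluorescence of HMU-b-Gal substrate (0.1 mM final) in citrate-phosphate buffer pH 5.2 with sodium taurocholate. Signal increase indicates enhancement.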
Regarding `COc1ccccc1N1CCN(c2ncc3c(n2)CCN(Cc2ccccc2F)C3)CC1`, the “activation” value was inactive: -6.82%.

Turning to `Cc1ccc(CSc2oc(-c3cccs3)nc2S(=O)(=O)c2ccccc2)cc1`, the “activation” value is inactive: 0.472%.

`CC(=O)c1ccc(N2CCN(c3ncnc4c3nc3n4CCCC3)CC2)cc1`: the “activation” value is inactive: -8.51%.

Take `CCc1ccc(OCC(=O)N(Cc2ccc(C)o2)C2CCS(=O)(=O)C2)cc1` (configuration not stated): the “activation” value was inactive: -4.98%.

Take `Cc1ccc(S(=O)(=O)N(CC(=O)NCCc2ccc(Cl)cc2)c2ccccc2C)cc1`: the “activation” value was inactive: -23.9%.

With `CCc1ccccc1NC(=O)N1CCc2c([nH]c3ccccc23)C1c1ccc(C)cc1` (configuration not stated), the “activation” value is inactive: -11.6%.

As to `COc1ccc(CCNC(=O)c2cnn(-c3ccc(F)cc3)c2C2CCN(C(=O)OC(C)(C)C)CC2)c(OC)c1`, the “activation” value is inactive: -21%.

`Cc1ccc2ncc(C(=O)N3CCN(c4ccccc4F)CC3)c(=O)n2c1`: the “activation” value is inactive: -20%.

In the case of `CCOC(=O)N1CCc2c(sc3c2c(=O)n(Cc2ccccc2)c(=O)n3Cc2ccccc2Cl)C1`, the “activation” value was inactive: 7.9%.

As to `C=CCc1c(C)nc2nc(SCC(=O)Nc3ccc(C)c(C)c3)nn2c1C`, the “activation” value is inactive: -30.6%.

Take `COc1ccc(NC(=O)C2CCCN(S(=O)(=O)c3ccc4c(c3)oc(=O)n4C)C2)c(OC)c1` (configuration not stated): the “activation” value was inactive: -3.08%.

Regarding `Cc1cccc(CSc2nc(-c3cccs3)ccc2C#N)c1`, the “activation” value was inactive: -17.5%.

Consider `O=C(COc1ccccc1F)Nc1nnc(SCc2cc(=O)c3ccccc3[nH]2)s1`, for which the “activation” value was inactive: -2.55%.

Take `Cc1c(NC(=O)c2cc(=O)c3ccccc3o2)c(=O)n(-c2ccccc2)n1C`: the “activation” value is inactive: 8.09%.

Consider `Cc1coc2c(C)c3oc(=O)c(CC(=O)NCCc4ccc(Cl)cc4)c(C)c3cc12`, for which the “activation” value is inactive: -7.92%.

As for `COCCCNC(=O)c1ccc(-n2c(-c3ccccc3)cc3c2CCC(C)C3)cc1` (configuration not stated), the “activation” value is inactive: -3.85%.

As to `COc1cccc(N2CCN(C(=O)c3cccn3-c3nnc(N4CCCC4)s3)CC2)c1`, the “activation” value was inactive: -21.8%.

In the case of `O=C(O)COc1nn(Cc2ccccc2)c2ccccc12`, the “activation” value is inactive: -10.9%.

Turning to `COc1cccc(-c2nnc(SCC(=O)NC3CCCCC3)o2)c1`, the “activation” value was inactive: -15.7%.

In the case of `COc1ccc(S(=O)(=O)Nc2ccc(-c3cn4ccsc4n3)cc2)cc1C`, the “activation” value was inactive: -14.7%.

Turning to `COc1ccc(CCN2C(=O)c3oc4cc(C)cc(C)c4c(=O)c3C2c2ccccc2F)cc1OC` (configuration not stated), the “activation” value is inactive: -1.23%.

As to `CCOc1ccc(CCNC(=O)C2CCN(C(=O)c3cc4sccc4n3CC)CC2)cc1OCC`, the “activation” value is inactive: -12.2%.

With `CC(=O)c1ccc(NS(=O)(=O)c2ccc(-c3cc(C)no3)s2)cc1`, the “activation” value is inactive: -39.5%.

On to `CCCn1c(=O)c2sccc2n2c(CCCC(=O)Nc3ccc(Oc4ccc(Cl)cc4)cc3)nnc12`, for which the “activation” value is inactive: -13%.

With `Cc1ccc(NC(=O)c2ccc(CN3C(=O)CCn4nc(C)cc43)cc2)c(Cl)c1`, the “activation” value was inactive: -13.6%.

Regarding `Cc1cccc(NC(=O)CN2C(=O)c3cccc4cccc2c34)c1C`, the “activation” value is inactive: -9.2%.

For the compound `CCCN1CCN(c2ncnc3sc(C(=O)Nc4c(C)cc(C)cc4C)c(C)c23)CC1`, the “activation” value is inactive: -17.3%.

With `CCOC(=O)N1CCC2(CC1)OC(=O)C(C)=C2C(=O)NCc1cccc(F)c1`, the “activation” value was inactive: -12.7%.

Turning to `NC(=O)C1(N2CCCCC2)CCN(C(=O)Nc2ccc(F)cc2F)CC1`, the “activation” value is inactive: -1.18%.

With `CCC1CN(S(=O)(=O)c2cc(-c3onc(C)c3C)ccc2C)c2cc(Cl)ccc2O1` (configuration not stated), the “activation” value was inactive: -8.12%.

With `CCc1ccc(C(=O)c2cn(CC(=O)Nc3ccc(OC)cc3)c3cc4c(cc3c2=O)OCO4)cc1`, the “activation” value is inactive: -3.25%.

For the compound `Cc1cccc(C(=O)N2c3nc(-c4ccco4)nn3C3(CCCCC3)[C@@H]3CCCC[C@@H]32)c1`, the “activation” value was inactive: -8.02%.

With `C#CCOc1ccc(C2CC(=O)Nc3c2c(C)nn3-c2nc(C)cc(C)n2)cc1` (configuration not stated), the “activation” value was inactive: -10.2%.

For `Cc1cccc(-n2ncc3c(N4CCCC(C)C4)ncnc32)c1` (configuration not stated), the “activation” value is inactive: -18.4%.

Consider `Cc1ccc(Cn2ccnc2SCC(=O)Nc2nc3ccccc3s2)cc1`, for which the “activation” value was inactive: -17%.

`Cc1cc(NC(=O)C2CCN(S(=O)(=O)c3cccc4nsnc34)CC2)ccc1Br`: the “activation” value is inactive: -18.9%.

In the case of `NS(=O)(=O)c1ccc(NC(=O)C(=O)Nc2ccc3nc4n(c(=O)c3c2)CCCCC4)cc1`, the “activation” value is inactive: -14.8%.

Regarding `O=c1ccc(-c2ccccc2)nn1Cc1ccc(F)cc1Cl`, the “activation” value is inactive: -13.4%.

Turning to `CN(C)CCCOc1nn(Cc2ccccc2)c2ccccc12`, the “activation” value was inactive: -4.37%.

On to `CCCCCCSc1nnc2c(n1)OC(C)Nc1ccc(Br)cc1-2` (configuration not stated), for which the “activation” value was inactive: -5.53%.

For `CCOc1ccc2nc(N3CCCC(C(=O)Nc4cc(Cl)c(OC)cc4OC)C3)sc2c1` (configuration not stated), the “activation” value is inactive: -4.44%.

As for `Cc1c(C(=O)Nc2cccc(-c3nc4ccccc4s3)c2)oc2ccccc12`, the “activation” value was inactive: -3%.

With `COc1ccc(CNC(=O)c2ccc(NC(=O)N3CCSc4ccccc43)cc2)cc1`, the “activation” value is inactive: -9.45%.

As for `CSc1nn(Cc2cccc(C)c2)c(N)c1S(=O)(=O)c1ccccc1`, the “activation” value was inactive: -12.6%.

As for `CCOC(=O)c1ccccc1NC(=O)COc1ccccc1-c1nnc(-c2ccccc2)o1`, the “activation” value was inactive: 3.31%.

With `CC(C)c1ccc2oc(-c3ccc(NC(=O)c4cccc(Br)c4)cc3)nc2c1`, the “activation” value was inactive: -16.2%.

Consider `Cc1ccc(NC(=O)CC(C)S(=O)(=O)c2ccc3c(c2)NC(=O)CO3)c(Cl)c1` (configuration not stated), for which the “activation” value is inactive: -13.9%.
